# The full ranking holds about 4,500 sequences; the median of “median log2 fold change of GCK-ALFA target abundance (FLAG IP / Myc IP barcode read proportion)” is about 0.078, and the lowest 2% start at about -0.6. Some of the results follow.
# B1: GBRAP_184_5167 (protein)
# chain: MVKEFEIEVNDVAEAKEKIAEIAKEVAGTKAELFLTVKVEKLTVEIAKAIMDGLKAIKDAGYVTSVTVDFTGEIDEETMDVAIELADEAGVRLVLAIDEE
# B2: GBRAP_128_3529 (protein)
# chain: SVEEAKERAREVVERIKNSDEEEARKITEEFLEELKEWSDEEVEAAVEVLEELKPELSAEKLEVVADTIRERRDEFTPEKQNHLAGLEVELLNEAEEKEE
# B3: GBRAP_160_4286 (protein)
# chain: MEELEKLKKEIKEIAEEALEMMKGQTREERANIVRVAGGEVVLLLSENPNISDETEDKVAEIWDEVAEYILANPDLTDEEIEELINKALEEVKKLIEEEM
# B4: GBRAP_184_5265 (protein)
# chain: KVLERTIKAENVEELIAKMEEVRKEALATGADVIILLEVEKLTKEMIDALFAQLKALRDAGYKGKITVGIDADLTEEMIDYVIKKADEAGVNVVLAISEE
# B5: GBRAP_11_2770 (protein)
# chain: KKEELKKAAELAEKAAEAVKQLLEKGVDDEELRKKIEELLEEITKLTEKYGDEDMKKLVEIAKELLKKLKEDPENAEQYAEELRATFDVLSGQFLLEAEE
# B6: GBRAP_125_3071 (protein)
# chain: SEEETLENLALIAKALGFSEGDVAEAVELARASSVKQTLIAILMAEGAEETADAVEKLTEEQAKEVLKKLAEELKANPDLSKEEVIELLKKLAEEAIAAA
# B7: GBRAP_125_3112 (protein)
# chain: NMEEILEALRIILKALGFDEEEIEEAVRLAREYGIKGTMIAAALALGWEEVAELLEKLSEEEVKEALLRTAEKIKENPELTPEEVKELLKEVLKEILEKK
# B8: GBRAP_160_4708 (protein)
# chain: SETAEKLKEYVDEEFEELKEMIEGETAEQRATIARGAFGEIIMELIENEEASDELEDEVDEIGDELVATILANPDLTDEEVKALIDEAREKIKEAIEKHL
# B9: GBRAP_160_4251 (protein)
# chain: EEELERLREEIREEAEVLLEALEESDKADWPAFARAMAGDIVQLVIDNPNASEETIEEVDRLAEELAAELVAAADASPEERRALLERGVERIVETVEKGL
# B10: GBRAP_128_3578 (protein)
# chain: SVEEVKAEVRALLAAMKTADEATQKAIADEIATRFIKLSLEEQKAAAETIKELLPELTAEQLEILADAFRKARPKGTPEAANLLADVQVEALNAALEKEE
# B11: GBRAP_160_4727 (protein)
# chain: SERIEAFVEEFREEFLETIDATENESKEEANAMFEGTAGDILMDAFEEPFLSDEMEDVVAEILDELVAELKANWDASKEEKKAIVDEHMERLLEKLKELE
# B12: GBRAP_52_6053 (protein)
# chain: MREELRAKVDELVALMRAGDEDGARAMLDEIAATLNEEELKLFAEELAERAAAAAPEDFDAMARLAEMFEDALLAAGVDEAFADEAEALIYAALYEAELR
# B13: GBRAP_160_4102 (protein)
# chain: MEKIEELIKEIDELVKETKEMIKGESIEQRAIIVEGTGGEVIMLLFESGVVSEEVEDFADEEWDKLVETIRSNPDLTYEEIVKLIDEVAEKIKKKIKEDG
# B14: GBRAP_128_3520 (protein)
# chain: SVEEAIKEAEEVMEKIKNSSVEEAYKIAKEFLKKLKEWSLEEVEAAVEKMEKLLPKLSAEKLEAVADAIEELRGEFDPEKARLLAGLQVDALNEAEELEE
# B15: GBRAP_160_4039 (protein)
# chain: SEKYEKLAKFAKEVFEEAKKLIEGQTVEQAAVVFAVAMGQIILEAEELGIDDDELHDLIDKLEDEGVAYLLAHPDLTEEEIKKLIEEAEKKILEAIEKAK
# B16: GBRAP_52_5981 (protein)
# chain: MEEEMRKLAEEIVALVKAGKLEEARALMERLAAELSEEELEMIAEELARLAKTASPEEIDAIVEAAEMLRDVWLEAGRDEAVADAGLARVAAAAYAALQA
# B17: GBRAP_160_4812 (protein)
# chain: MEKVEEKLKEAEKDLLDTAEASKDLPVADRAKLLEAEGYTNILDLEEELNLSDETVDKLDKIVDDLVATLLANPDLTDEEVLALVKKAAEEIKEVVLKEA
# B18: GBRAP_11_2654 (protein)
# chain: KKEALLRAAELAEEAAKAVQELIEKGVDDKELQAKAEELLEKLLELAKKELDEASRHDVEVAYELWKEFKADKANREQLAKELLAALRVLAGNYLLEADE
# B19: GBRAP_128_3171 (protein)
# chain: SSEEIVKKVEELVNAMLTASPEEQRKLAREIVDIFGEADDETAEKIAEVIIKMAPKFSEEQLEILDDVIRERMPELTPEKQELAAEVMVELGEQILELEE
# B20: GBRAP_184_5179 (protein)
# chain: MVKEFEIEIENVEEAKKKMEEIKEEVKGKKAELYLIVKAKKFTVEIVEAIMEILKEMKEEGYVTKVTLHLDGEMSEEVIDKAVELAKEAGVNLVLALDEE
# B21: GBRAP_160_4781 (protein)
# chain: SEKKEKLKKAIEEAAKEIKEAIDTESPEQVLTVVRGEGGDILQEAEELGIDNEEALEGLDKGIKELEAAMKAAADASPEEKKAIVDKAKEKMIETLDKLT
# B22: GBRAP_128_3274 (protein)
# chain: MNEEIVARARAFVDRLKAADDEEARAIAREFAEWLGSISVEDAEQAVDVIEERLGELSARQLEILADVLEEQRPLFSPEKANLVADLQVEALNEAEEKEE
# B23: GBRAP_160_4149 (protein)
# chain: SEELKKLIKEIKEITEEAIKLMEGETPEEAKVIAKVALGEIVMLVESNEEVSEETEEKVGEIADEAEEYLDENPDLTVEEIKELLKKAGEEVIKIIEEEL
# B24: GBRAP_11_2842 (protein)
# chain: SRAALERLAARAEEIAAELEALIASGAPSEAELEALLARVEALLAEVKAHASAASQKIAAIALEEVRQAIADPENRQEYLRNALAAVRVLAGDLLLEIEE
# B25: GBRAP_83_6952 (protein)
# chain: KEKIVVAANDDNVEKAVKIAADLAKTGKYEVTLEFIGTVEAARKLIKYVEKALKEGVTFDVEVLLEGATEEEAEEIKAELEAVAKKAGKDVKVEVHVIEP
# B26: GBRAP_128_3411 (protein)
# chain: STEEKVKKAEELLEKMLTADEEEQKKLAEELAELLKESDLETVEKIVEVILKMLPKFTAEQLDILADVLRERLSEFSPEKQELVSEVIVEALNLAEELEE
# B27: GBRAP_184_5042 (protein)
# chain: KIFEATIKFENLEELKEKLEELEEEVKDHKGELIVHVEAPKFTKEMVETLMERLKEILEKGYAKSVTVGLDGEMSEEVVDLAVELAKKAGINLTLALSEE
# B28: GBRAP_52_6080 (protein)
# chain: MKEEIEKVAEEIVKAIAAGDKEGALEIIRKAIKEFSVEEIKEMLELAARKVAELGEEQHELFVEVLDEAYDLMLEEGISEEDALLIVGAAEAALAKAVAA
# B29: GBRAP_125_2998 (protein)
# chain: SEEELAEALAIILKALGYSEDEIKEAIEIARKHGIKQTMIAIALAEGAEELAELLEKLTEEEAAEIVKEVAKALKENPDMTPEEVLEKMKELAKKALEKK
# Target: GABARAP, O95166
# Sequence (O95166 whole entry, the tested form may be a part): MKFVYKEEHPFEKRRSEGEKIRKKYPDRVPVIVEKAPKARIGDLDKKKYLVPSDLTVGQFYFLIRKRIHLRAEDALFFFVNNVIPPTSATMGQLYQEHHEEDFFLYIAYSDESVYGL
# Experiment: median log2 fold change of GCK-ALFA target abundance (FLAG IP / Myc IP barcode read proportion) (log2 ratio); each designed protein is fused to an ALFA-tag nanobody in HEK293 cells to bring the named protein to FLAG-tagged glucokinase (GCK); Myc marks an untargeted standard; higher = target protein stabilised (more abundant)
# Conditions: target protein: 3xFLAG-MCP-GCK-ALFA reporter; HEK293 landing pad (RPLP)
# How it was run: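 Sequencing of reverse-transcribed, amplified circular RNA barcodes from anti-FLAG and anti-Myc immunoprecipitates provided the readout for an ALFA-nanobody-fused binder library recombined into HEK293 landing-pad cells. Those cells were induced with 2 μg mL^−1 doxycycline, transfected with a plasmid expressing a FLAG-tagged target and a Myc-tagged standard, and lysed after 48 h. Target abundance is the per-binder median log2 ratio of FLAG to Myc barcode read proportions. Only barcodes at a proportion of ≥10^−7 in both replicates and binders with ≥3 barcodes per replicate were kept, with a 10^−6 pseudocount added before the two replicates were pooled.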
row,Binder,median log2 fold change
1,B1,0.0394
2,B2,0.173
3,B3,0.16
4,B4,-0.0191
5,B5,0.162
6,B6,0.306
7,B7,-0.66
8,B8,-0.0929
9,B9,-0.029
10,B10,0.203
11,B11,-0.216
12,B12,-0.129
13,B13,-0.188
14,B14,0.284
15,B15,0.219
16,B16,0.0743
17,B17,-0.0975
18,B18,0.236
19,B19,0.237
20,B20,-0.138
21,B21,0.333
22,B22,0.124
23,B23,-0.271
24,B24,0.147
25,B25,0.211
26,B26,0.197
27,B27,0.434
28,B28,0.146
29,B29,-0.123
